{
  "source": "a collection of fitness landscapes (doi:10.1016/j.celrep.2020.107928)",
  "parents": {"B1": {"name": "Caulobacter ParB omega fusion; a variant is named by its letters at X, in order, B8GW30 (parent)", "chain": "MESVVVGEPGMSEGRRGLGRGLSALLGEVDAAPAQAPGEQLGGSREAPIEILQRNPDQPRRTFREEDLEDLSNSIREKGVLQPILVRPSPDTAGEYQIVAGERAWRAAQRAGLKTVPIMVRELDDLAVLEIGIIENVQRADLNVLEEALSYKVLMEKFERTQENIAQTIGKSXSHVANXMRLLXLPDEVQSYLVSGELTAXHARAIAAAADPVALAKQIIEGGLSVRETEALARKAPNLSAGKSKGGRPPRVKDTDTQALESDLSSVLGLDVSIDHRGSTGTLTITYATLEQLDDLCNRLTRGI"}},
  "note": "The full ranking holds about 81,000 sequences; the median of “one-hybrid fitness for binding parS DNA” is about -0.17, and the highest 2% start at about 0.51. This is one part of the list.",
  "data": [
    {"variants_of": "B1", "assay": "one-hybrid fitness for binding parS DNA (scaled: cognate 1, non-cognate 0); higher = stronger binding", "conditions": "with parS DNA site", "method_in_brief": "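Pre- and post-selection plasmids were Illumina-sequenced, three replicate libraries were pooled, and any variant with under 10 reads was removed. The libraries were Caulobacter ParB with four specificity codons randomised, selected in E. coli USO through a HIS3 reporter whose site is 19 bp from the promoter. Cells grew 48 hours at 37°C on M9 without histidine, with 0.1 mM IPTG and 5 mM 3-AT. Fitness is the log change in variant-to-wild-type read ratio, rescaled against cognate and non-cognate.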", "values": [
      {"variant": "RWLG", "one-hybrid fitness for binding parS DNA": 0.685},
      {"variant": "QTWV", "one-hybrid fitness for binding parS DNA": "≤ 0.2"},
      {"variant": "PLGR", "one-hybrid fitness for binding parS DNA": "≤ 0.2"},
      {"variant": "EKTR", "one-hybrid fitness for binding parS DNA": "≤ 0.2"},
      {"variant": "YYLT", "one-hybrid fitness for binding parS DNA": "≤ 0.2"},
      {"variant": "CIAR", "one-hybrid fitness for binding parS DNA": "≤ 0.2"},
      {"variant": "SLNQ", "one-hybrid fitness for binding parS DNA": "≤ 0.2"},
      {"variant": "GKTR", "one-hybrid fitness for binding parS DNA": "≤ 0.2"},
      {"variant": "PGMV", "one-hybrid fitness for binding parS DNA": "≤ 0.2"},
      {"variant": "ASQW", "one-hybrid fitness for binding parS DNA": "≤ 0.2"},
      {"variant": "DERY", "one-hybrid fitness for binding parS DNA": "≤ 0.2"},
      {"variant": "SFEG", "one-hybrid fitness for binding parS DNA": "≤ 0.2"},
      {"variant": "YGYV", "one-hybrid fitness for binding parS DNA": "≤ 0.2"},
      {"variant": "YNNI", "one-hybrid fitness for binding parS DNA": "≤ 0.2"},
      {"variant": "GYTS", "one-hybrid fitness for binding parS DNA": "≤ 0.2"},
      {"variant": "DHPG", "one-hybrid fitness for binding parS DNA": "≤ 0.2"},
      {"variant": "IQRT", "one-hybrid fitness for binding parS DNA": "≤ 0.2"},
      {"variant": "YDTW", "one-hybrid fitness for binding parS DNA": "≤ 0.2"},
      {"variant": "VNYS", "one-hybrid fitness for binding parS DNA": "≤ 0.2"},
      {"variant": "PQFI", "one-hybrid fitness for binding parS DNA": "≤ 0.2"},
      {"variant": "YQGR", "one-hybrid fitness for binding parS DNA": "≤ 0.2"},
      {"variant": "KCVG", "one-hybrid fitness for binding parS DNA": "≤ 0.2"},
      {"variant": "KWLG", "one-hybrid fitness for binding parS DNA": "≤ 0.2"},
      {"variant": "NGSS", "one-hybrid fitness for binding parS DNA": "≤ 0.2"},
      {"variant": "IKVG", "one-hybrid fitness for binding parS DNA": "≤ 0.2"},
      {"variant": "DQAE", "one-hybrid fitness for binding parS DNA": "≤ 0.2"},
      {"variant": "PVPA", "one-hybrid fitness for binding parS DNA": "≤ 0.2"},
      {"variant": "QRQW", "one-hybrid fitness for binding parS DNA": "≤ 0.2"},
      {"variant": "VRST", "one-hybrid fitness for binding parS DNA": "≤ 0.2"},
      {"variant": "DMPG", "one-hybrid fitness for binding parS DNA": "≤ 0.2"},
      {"variant": "HRDH", "one-hybrid fitness for binding parS DNA": "≤ 0.2"},
      {"variant": "PHIW", "one-hybrid fitness for binding parS DNA": "≤ 0.2"},
      {"variant": "LYRP", "one-hybrid fitness for binding parS DNA": "≤ 0.2"},
      {"variant": "QSRF", "one-hybrid fitness for binding parS DNA": "≤ 0.2"},
      {"variant": "RRMG", "one-hybrid fitness for binding parS DNA": 0.806},
      {"variant": "RNFY", "one-hybrid fitness for binding parS DNA": "≤ 0.2"},
      {"variant": "EGWP", "one-hybrid fitness for binding parS DNA": 0.264},
      {"variant": "FLNG", "one-hybrid fitness for binding parS DNA": "≤ 0.2"},
      {"variant": "CLCL", "one-hybrid fitness for binding parS DNA": "≤ 0.2"},
      {"variant": "KKRK", "one-hybrid fitness for binding parS DNA": "≤ 0.2"},
      {"variant": "QLMS", "one-hybrid fitness for binding parS DNA": "≤ 0.2"},
      {"variant": "HNQL", "one-hybrid fitness for binding parS DNA": "≤ 0.2"},
      {"variant": "AWAG", "one-hybrid fitness for binding parS DNA": "≤ 0.2"},
      {"variant": "CGSL", "one-hybrid fitness for binding parS DNA": "≤ 0.2"},
      {"variant": "NSFS", "one-hybrid fitness for binding parS DNA": "≤ 0.2"},
      {"variant": "GCSH", "one-hybrid fitness for binding parS DNA": "≤ 0.2"},
      {"variant": "AVVC", "one-hybrid fitness for binding parS DNA": "≤ 0.2"},
      {"variant": "TPNT", "one-hybrid fitness for binding parS DNA": "≤ 0.2"},
      {"variant": "VVAT", "one-hybrid fitness for binding parS DNA": "≤ 0.2"},
      {"variant": "FNAG", "one-hybrid fitness for binding parS DNA": "≤ 0.2"},
      {"variant": "QQYC", "one-hybrid fitness for binding parS DNA": "≤ 0.2"},
      {"variant": "VWEP", "one-hybrid fitness for binding parS DNA": "≤ 0.2"},
      {"variant": "RPCE", "one-hybrid fitness for binding parS DNA": "≤ 0.2"},
      {"variant": "QTDC", "one-hybrid fitness for binding parS DNA": "≤ 0.2"},
      {"variant": "PYLK", "one-hybrid fitness for binding parS DNA": "≤ 0.2"},
      {"variant": "GSQG", "one-hybrid fitness for binding parS DNA": "≤ 0.2"},
      {"variant": "PLMR", "one-hybrid fitness for binding parS DNA": "≤ 0.2"},
      {"variant": "REET", "one-hybrid fitness for binding parS DNA": "≤ 0.2"},
      {"variant": "RVTD", "one-hybrid fitness for binding parS DNA": "≤ 0.2"},
      {"variant": "VIEK", "one-hybrid fitness for binding parS DNA": "≤ 0.2"},
      {"variant": "YGFS", "one-hybrid fitness for binding parS DNA": "≤ 0.2"},
      {"variant": "DGAV", "one-hybrid fitness for binding parS DNA": "≤ 0.2"},
      {"variant": "GKLD", "one-hybrid fitness for binding parS DNA": "≤ 0.2"},
      {"variant": "TSRL", "one-hybrid fitness for binding parS DNA": "≤ 0.2"},
      {"variant": "RACV", "one-hybrid fitness for binding parS DNA": "≤ 0.2"},
      {"variant": "WISG", "one-hybrid fitness for binding parS DNA": "≤ 0.2"},
      {"variant": "LEQC", "one-hybrid fitness for binding parS DNA": "≤ 0.2"},
      {"variant": "DHMV", "one-hybrid fitness for binding parS DNA": "≤ 0.2"},
      {"variant": "NQQR", "one-hybrid fitness for binding parS DNA": "≤ 0.2"},
      {"variant": "RDSN", "one-hybrid fitness for binding parS DNA": "≤ 0.2"},
      {"variant": "MHLE", "one-hybrid fitness for binding parS DNA": "≤ 0.2"},
      {"variant": "EACT", "one-hybrid fitness for binding parS DNA": "≤ 0.2"},
      {"variant": "GLHS", "one-hybrid fitness for binding parS DNA": "≤ 0.2"},
      {"variant": "QELE", "one-hybrid fitness for binding parS DNA": "≤ 0.2"},
      {"variant": "VTHR", "one-hybrid fitness for binding parS DNA": "≤ 0.2"},
      {"variant": "CMNE", "one-hybrid fitness for binding parS DNA": "≤ 0.2"},
      {"variant": "GMLV", "one-hybrid fitness for binding parS DNA": "≤ 0.2"},
      {"variant": "RACQ", "one-hybrid fitness for binding parS DNA": "≤ 0.2"},
      {"variant": "HWGV", "one-hybrid fitness for binding parS DNA": "≤ 0.2"},
      {"variant": "YMPY", "one-hybrid fitness for binding parS DNA": "≤ 0.2"},
      {"variant": "HPPV", "one-hybrid fitness for binding parS DNA": "≤ 0.2"},
      {"variant": "RQLF", "one-hybrid fitness for binding parS DNA": 0.241},
      {"variant": "TLFK", "one-hybrid fitness for binding parS DNA": "≤ 0.2"},
      {"variant": "YMDV", "one-hybrid fitness for binding parS DNA": "≤ 0.2"}
    ]}
  ]
}
